Reference: the supplement of paper PMC10126150
Values marked as one replicate rest on one cluster of the flow cell; about a third of the high ones do not repeat.

System: ATP
Assay: switch fluorescence ratio, 500 uM ATP over buffer (Cy3 cluster intensity, sum of 5 cycles each) (fold (ratio)); higher = stronger signal-on switching upon ATP binding; sequences stand for … in TCGTCGGCAGCGTCAGATGTGTATAAGAGACAGTTTTTTTTTTTTTTTTTTTTTTTTT…TC
Conditions: aptamer strand: ATP DNA aptamer (quencher-CACCTGGGGGAGTATTGCGGAGGAAGG + anchor), 100 nM annealed; ATP concentration: 500 uM; one replicate
Summary of the method: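 Cy3-labelled switching-strand clusters on a modified Illumina MiSeq flow-cell were annealed to 100 nM quencher-labelled ATP aptamer, imaged in selection buffer, then imaged after 15 min with 500 uM ATP at 22 °C. Five buffer/ATP cycles ran, with NaOH stripping and re-annealing between them. The fluorescence ratio is summed target-cycle over summed buffer-cycle Cy3 intensity per cluster, averaged per switch-domain sequence. Clusters outside 100-1000 RFU were excluded.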
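Note: ATP exposure 15 min at 22 °C before imaging.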

Sequence	switch fluorescence ratio
GTAGAAGTTA	0.958
GTGTATCGGA	0.981
CCCGGCATC	1.06
AGCTGAATCA	1.17
CGTAGATAGG	1.03
TTGTGTTA	0.973
CGATGAGCTC	1.01
ACGCATTTCC	2.39
GGATGTATTT	0.986
TATCCTTTGC	1.08
CGACCCATG	0.955
CAAGCCAAAC	1.38
TTATATTATC	0.998
ACTTAATCTG	1.06
CTCTTCGGAG	1.01
TACAGTGTCA	1.02
AAAACCTAGA	0.97
TTCGGGCGGT	2.09
ATCCCTCG	1.06
TGCCGATTAG	0.988
ATCAGATATA	0.951
CTAAAGAAGA	1.02
CTGGCGTAAG	1.01

Sequence	switch fluorescence ratio
AGATCGCTA	0.978
GGACGTCGCC	1.04
TGTGGTTTG	0.98
ATGGTAGTTA	0.981
AATCCGGATG	0.974
AACCGTCGTG	1.02
ACCAACGACA	1.4
ACGAATCGTA	1.05
AGCTGCGATA	1.14
GTCGACCTGT	1.02
AAAGATGAGT	1.05
GAGTAAGTAC	1.06
ATCCATCAGA	1.01
CAAGTGCCGA	1.01
TGTTCACAAC	0.994
GCAGTCTTCC	1
CAAACTAACG	1.23
AACAAAGGTT	1.07
CCATGGCCCT	0.977
TCCAAAAGAT	0.999
GACCTATAGA	1
GTTTTGGTGA	0.998
CGTCAATGCA	1.18

Sequence	switch fluorescence ratio
TTCACTTTCA	1.03
AAAAAAAAAC	0.971
TTATGAATTC	0.997
AGACGCCCAT	1.21
ACCTGCATCC	2.22
GGGTGCGTGG	1.01
AGATTCCAGT	0.973
TCGAATTCTG	1.01
ATACTAACAA	1.08
AAAGGACCAT	1.12
ATACATTGTG	0.991
CCGTTTATCA	0.985
CTGAGTAGT	1.01
GCACTCCTGT	0.954
CGGCGTAGGT	0.978
AAGTCGGGCA	1.01
TTTCCGTCAA	4.73
AGCACGGAGG	0.974
TGATTGATGC	1
ACACGCCTTG	1.03
GTCCGCGCAT	3.73
GTATTAGTCG	1.05
GTATGAGGGG	1.03

Sequence	switch fluorescence ratio
GGACCATAGC	0.997
GGCAACCTGG	1
CTGACGTTAA	3.45
AAAAATTAGA	0.996
GAGCTGTGAG	1.03
ATATCGTAGC	0.971
AACGTAGAGC	0.964
TTTCCCAAGG	1.36
AGTTTGGAGG	1.04
GTGGAAAAGT	0.972
CAACTTTA	1.11
ATTACGAGCT	1.02
TCGTTGCTC	0.984
AGCTACGGAA	1.77
AAGGGATGTA	0.989
CCGGAGAAGG	2.13
CCTGTTATTG	0.981
TGTCAAGGGA	1.02
GGGAGGTGAT	1.03
AGCCGTGCTT	0.91
GTCGGTGGGA	1.03
TATAAAGGCG	1.53
TTAAGGTAAC	1.03

Sequence	switch fluorescence ratio
GAAATTCAGT	0.974
CACTACCGTC	1.15
TAATAGTAT	0.992
AAAGACTATC	1.07
ATGCGTCAGC	1.05
TGCGAGATCT	1.04
TTGCGAAGGA	1.01
ACGCTGTCAT	0.995
TTAATGTATG	1.01
TTGTAAGTCA	1.01
TGCTTTTTTA	0.984
ACGACTGGGT	1
GCCCGGGGGT	1.02
GCGTATACTC	3.84
AGTCCGTTGT	0.977
TTAGCGTTTC	0.997
GGGTAGAGAT	0.994
ATATTACGTG	1.05
TTGCCAACGC	1.03
CGCCATTCTA	1.03
AAAGGCAAGA	2.53
TAAATTGGG	1.02
CAAGTTGCGT	0.948

Sequence	switch fluorescence ratio
GCCCTGATGA	0.985
ATAATGGACT	1
GTACGTAAGC	1.33
CATGTGTCAA	1.04
AGATATCTTG	0.993
AAGTGGTAA	0.993
TACGGTGGA	1.01
CATTGCTGTC	1.08
GCTTTTATCT	0.999
CTCCCTGAAT	1.08
CAGTTCGAGA	1.03
ATGACTCTGA	1.01
ACTAACAGT	1.04
ATGTTAATGG	0.996
AATGGTGCT	1.01
GAGTTTAAGC	0.971
ACGATATTGA	1.06
TCGGCGGACT	1.06
CGGACCAGAT	0.988
TGGAGCCTT	1.02
ACGGAGTATC	1.11
CAGATATTCC	1.1
ACTTTTCCGA	1.09

Sequence	switch fluorescence ratio
AACTTAAGTA	1.07
AGCATGTGTG	1.05
GGTTCTATAA	0.983
CAATTACTTG	1.01
CTTTGAGGGG	1.01
GCTAGTCTTT	0.976
ATTGAAAATG	1.03
GGGGATCGTC	0.988
ATTGCGATA	1.07
TAGTTGGTAA	1.01
TGCGTATTGG	0.995
AAGTTCTGG	0.936
GGGTTACCCG	0.988
GATGGTCAC	1
CCTCTCGGGG	0.995
TCTGCGATTT	1.09
CTAGTCGTTA	1.04
ACAAGACACC	1.42
AGCCAGGGTT	0.974
TTAGCGTAAT	1.15
